# In all, about 110,000 compounds went through this assay and about 40 (0.04%) were called active. Inconclusive results, whose numbers are uncertain, are shown with a selection of clear calls. Calls follow the shape of the dose curve; as a rule, active = well fitted curve in the direction sought with a large enough effect in the signal ratio (not every such curve was filed as active); inconclusive = small, poorly fitted or top-dose-only effect, or a change in a side signal; inactive = flat fitted curve, though single readings scatter; the % refers to the signal ratio. Potencies beside an inconclusive call are fits to weak or partial responses and may not hold up.
# Assay: IkB Signaling;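 as to IkBa stabilization activation: 0% = basal untreated cells and 100% = reference inhibitor full response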
# Conditions: ABC-DLBCL IkBa-CBG/CBR dual luciferase ratio (green luciferase fused to IkBa over red control in OCI-Ly3 lymphoma cells), 4 h, scaled: untreated 0%
# Procedure, shortened: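 Luminescence ratio of IκBα-fused green versus native red beetle luciferase in OCI-Ly3 cells, 4 h post-doxycycline with compound; red signal alone, scaled from basal (0%) to zero light (-100%), flagged nonspecific or cytotoxic effects.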
# [1] = IkBa stabilization activation: at 57.1 µM (top of the series), proteasome inhibitor 100% unless noted
# Potency is read from the fitted curve at half-maximal effect.
smiles,measurement,setting,value
Cc1occc1-c1nnc(SCC(=O)N2CCc3ccccc32)o1,Potency,[1],"inconclusive: 31.6 µM [rising, single point]"
CCN1CCN(Cc2c(O)ccc3c(=O)c(Oc4ccccc4C(C)C)c(C(F)(F)F)oc23)CC1,IkBa stabilization activation,[1],inconclusive: 5.09% [signal inhibitor]
COc1ccc(-c2nc(C#N)c(NC(C)c3ccccc3)o2)cc1OC (stereo not given),IkBa stabilization activation,[1],inconclusive: 4.35% [signal inhibitor]
Cc1ccc(CNC(=O)c2cc3ccc4cccnc4c3[nH]2)cc1,IkBa stabilization activation,[1],inconclusive: -0.314% [signal inhibitor]
COCCCn1c(CCC(=O)O)ccc1-c1ccc(F)cc1,IkBa stabilization activation,[1],inconclusive: 14.3% [signal inhibitor]
COc1ccc(C2=Nc3ccc(OC(F)(F)F)cc3NC(c3cccnc3)=N2)cc1,IkBa stabilization activation,[1],inconclusive: 0.393% [signal inhibitor]
COc1ccc(CNC(=O)C2CCN(S(=O)(=O)c3ccc4c(c3)CCCN4C(C)=O)CC2)cc1,IkBa stabilization activation,[1],inconclusive: 2.19% [signal inhibitor]
CCc1ccccc1NC(=O)c1sc(-n2nc(C)c(Cc3ccccc3)c2C)nc1C,IkBa stabilization activation,[1],inconclusive: -0.475% [signal inhibitor]
O=C(O)C1CC(=O)N(c2ccc(OCc3c(F)cccc3Cl)cc2)C1 (stereo not given),Potency,[1],"inconclusive: 25.1 µM [signal inhibitor, partial curve]"
Cc1ccc(C)c(CSc2nnc3[nH]c(=O)cc(-c4ccccc4)n23)c1,IkBa stabilization activation,[1],inconclusive: 13.5% [signal inhibitor]
CCNc1c(N)c(=O)oc2ccccc12,Potency,[1],"inconclusive: 2 µM [signal inhibitor, full curve]"
Cc1ccc(Cl)cc1N,IkBa stabilization activation,[1],inactive
Cc1c(C(=O)N2CCCCC2)oc2ccc(S(=O)(=O)N3CC(C)CC(C)C3)cc12 (stereo not given),IkBa stabilization activation,[1],inconclusive: 3.42% [signal inhibitor]
Cc1cccc(NC(=O)C2CCN(S(=O)(=O)c3ccc4c(c3)CCCN4C(=O)C3CCC3)CC2)c1,IkBa stabilization activation,[1],inconclusive: 0.922% [signal inhibitor]
Cc1cccc(C)c1-n1ncc(C(=O)N2CCN(c3ncccn3)CC2)c1C1CCN(C(=O)OC(C)(C)C)CC1,IkBa stabilization activation,[1],inconclusive: 2.32% [signal inhibitor]
O=C(COc1ccc(F)cc1)Nc1nnc(SCc2cc(=O)n3ccccc3n2)s1,IkBa stabilization activation,[1],inconclusive: -0.696% [signal inhibitor]
N#C/C(C(=O)c1ccccc1)=C1/SC=C(N)N1c1ccccc1,Potency,[1],"inconclusive: 31.6 µM [signal inhibitor, partial curve]"
COc1ccc(C)cc1NC(=O)C(Cc1ccccc1)NS(=O)(=O)c1ccc(Br)s1 (stereo not given),IkBa stabilization activation,[1],inactive
O=C(Nc1nc2n(n1)C(c1ccccc1)C=C(c1ccc(Cl)cc1)N2)c1ccco1 (stereo not given),IkBa stabilization activation,[1],inconclusive: -1.21% [signal inhibitor]
COc1cccc(Cn2c(SCc3ccc(C(=O)N4CCCCC4)cc3)nc3ccncc32)c1,IkBa stabilization activation,[1],inconclusive: 2.58% [signal inhibitor]
Cc1cc(Cl)ccc1NC(=O)CN1C(=O)COc2ccc(S(=O)(=O)Nc3ccccc3)cc21,IkBa stabilization activation,[1],inconclusive: -0.283% [signal inhibitor]
CCc1c(C)nc2[nH]nc(-c3ccccc3C)n2c1=O,Potency,[1],"inconclusive: 20 µM [signal inhibitor, partial curve]"
Cc1ccc(CN(Cc2ccco2)C(=O)COc2cccc(C)c2C)o1,IkBa stabilization activation,[1],inconclusive: 2.59% [signal inhibitor]
Cc1ccc(-n2c(SCC(=O)OC(C)C)nnc2-c2ccncc2)cc1,Potency,[1],"inconclusive: 3.98 µM [signal inhibitor, full curve]"
Cc1ccc2c(c1)N(C(=O)N1CCC(C(=O)NCCc3ccccc3)CC1)CC(C)O2 (stereo not given),IkBa stabilization activation,[1],inconclusive: 2.78% [signal inhibitor]
COc1ncc2ncc(=O)n(Cc3cccs3)c2n1,IkBa stabilization activation,[1],"inactive: -1.01% [at 11.4 µM, scaled: untreated 0%, proteasome inhibitor 100%]"
Nc1nnc(N2CCc3ccccc32)s1,IkBa stabilization activation,[1],inactive
O=C(Nc1cccc2nsnc12)C1CC(=O)N(c2ccccc2)C1 (stereo not given),IkBa stabilization activation,[1],inactive
CC(C)Oc1ccc(CNC(=O)c2ccc(NC(=O)N3CC(C)Sc4ccccc43)cc2)cc1 (stereo not given),IkBa stabilization activation,[1],inconclusive: 0.383% [signal inhibitor]
CC1CCc2onc(C(=O)N3CCN(c4cccc(Cl)c4)CC3)c2C1 (stereo not given),IkBa stabilization activation,[1],inconclusive: -3.2% [signal inhibitor]
Cc1cc(C)c(S(=O)(=O)NCC(c2ccco2)S(=O)(=O)c2cccs2)c(C)c1 (stereo not given),IkBa stabilization activation,[1],inconclusive: 0.634% [signal inhibitor]
Cc1cc(Br)cc2c1N(Cc1ccccc1OC(C)C)C(=O)C2=O,IkBa stabilization activation,[1],inconclusive: 0.545% [signal inhibitor]
Cc1cccc(-c2noc(CN(C)S(=O)(=O)c3cc(Cl)ccc3Cl)n2)c1,IkBa stabilization activation,[1],inconclusive: 4.6% [signal inhibitor]
O=C(CSc1nncs1)NCc1ccc2c(c1)OCO2,IkBa stabilization activation,[1],inactive
Cc1ccc(OCCC(=O)OCC(=O)Nc2ccc(Cl)cn2)cc1,IkBa stabilization activation,[1],inconclusive: 1.66% [signal inhibitor]
CCCCNc1c(C(=O)OCC)c(C)nc2c1cnn2CC,IkBa stabilization activation,[1],inconclusive: 0.823% [signal inhibitor]
same,IkBa stabilization activation,"at 25.6 µM (top of the series), proteasome inhibitor 100%",inactive: -1.32%
same,IkBa stabilization activation,"at 57.1 µM (top of the series), proteasome inhibitor 100%",inactive: -3.73%
COc1ccc(CCNC(=O)c2cc(=O)c3ccc(C)cc3o2)cc1OC,IkBa stabilization activation,[1],inconclusive: -0.875% [signal inhibitor]
CCCCCn1c(=O)[nH]c2cc(C(=O)NC(C)CC)ccc2c1=O (stereo not given),IkBa stabilization activation,[1],inconclusive: 1.26% [signal inhibitor]
CCOc1ccc(CNC(=O)c2ccc3c(c2)nc2n3CCCCC2)cc1,IkBa stabilization activation,[1],inconclusive: 8.59% [signal inhibitor]
COc1ccc(C(=O)Nc2ccc3oc(-c4cccnc4)nc3c2)cc1OC,IkBa stabilization activation,[1],inconclusive: 8.48% [signal inhibitor]
CCc1cnc2c(c1SCC(=O)Nc1ccc(C(=O)OC)cc1)c(=O)n(C)c(=O)n2C,IkBa stabilization activation,[1],inconclusive: 0.315% [signal inhibitor]
O=C(COC(=O)c1cccc(NC(=O)c2ccc(Br)cc2)c1)c1ccc(Cl)cc1,Potency,[1],"inconclusive: 25.1 µM [signal inhibitor, single point]"
Cc1cccc(Cn2c(COc3ccccc3)nc3ccccc32)c1,IkBa stabilization activation,[1],inconclusive: 1.8% [signal inhibitor]
Cc1nn(C)c(C)c1CCNC(=O)Nc1ccccc1C(F)(F)F,IkBa stabilization activation,[1],inactive
CCOC(=O)c1nn(-c2ccc(OC)cc2)c(=O)c2c(N)scc12,IkBa stabilization activation,[1],inconclusive: 18%
CCC(=O)N1CCc2cc(S(=O)(=O)NC(C(=O)NCCc3cccc(C)c3)C(C)C)ccc21 (stereo not given),IkBa stabilization activation,[1],inactive
O=C(NCc1cccs1)c1ccc(CSc2nc3ccncc3n2Cc2ccccc2F)cc1,IkBa stabilization activation,[1],inconclusive: 3.79% [signal inhibitor]
Cc1ccc(C(=O)CSc2nnc(-c3ccco3)n2Cc2ccccc2)cc1,IkBa stabilization activation,[1],inconclusive: 12.8% [signal inhibitor]
Cc1cc(/C=N/n2cnnc2)c(C)n1-c1ccc(OCc2ccccc2F)cc1,IkBa stabilization activation,[1],inconclusive: -2.87% [signal inhibitor]
O=C(Nc1ccc2nc(-c3ccco3)[nH]c2c1)c1cccs1,IkBa stabilization activation,[1],inactive
O=C(NCCc1csc(-c2ccc(F)cc2)n1)c1cccc(F)c1,IkBa stabilization activation,[1],inconclusive: 0.135% [signal inhibitor]
c1ccc(-c2nn3c(Cn4cnc5ccccc54)nnc3s2)cc1,IkBa stabilization activation,[1],inactive
COc1ccc(NC(=O)c2nc(-c3ccc(C)cc3)n3c2CCCCC3)c(OC)c1,IkBa stabilization activation,[1],inconclusive: 0.559% [signal inhibitor]
CCc1cccc(C)c1NC(=O)c1cnn(-c2ccc(OC)cc2)c1C1CCN(C(=O)OC(C)(C)C)CC1,IkBa stabilization activation,[1],inconclusive: 3.3% [signal inhibitor]
Nc1nc(Sc2ccc([N+](=O)[O-])c3nonc23)c2[nH]cnc2n1,Potency,[1],active: 3.98 µM
CCOCCc1nn2c(=O)cc(COC(=O)c3ccc(NC(=O)C(C)(C)C)cc3)nc2s1,IkBa stabilization activation,[1],inconclusive: -1.56% [signal inhibitor]
COCCNC(=O)c1cc(-c2cccs2)on1,Potency,[1],"inconclusive: 20 µM [rising, partial curve]"
Cc1ccc(SCC(=O)Nc2ccc3oc(-c4ccccc4F)nc3c2)cc1,IkBa stabilization activation,[1],inconclusive: 0.864% [signal inhibitor]
COc1ccc(CCNC(=O)c2cc(=O)[nH]c3ccc(S(=O)(=O)N4CCCCC4C)cc23)cc1OC (stereo not given),IkBa stabilization activation,[1],inactive
Cc1cn2c(=O)cc(COC(=O)c3ccc(NC(=O)C(C)Oc4ccccc4)cc3)nc2s1 (stereo not given),IkBa stabilization activation,[1],inconclusive: 3.5% [signal inhibitor]
COc1ccccc1CN1CCC2(CC1)CCN(S(=O)(=O)c1ccccc1)CC2,IkBa stabilization activation,[1],"inactive: 2.16% [at 11.4 µM, scaled: untreated 0%, proteasome inhibitor 100%]"
O=C(Nc1cc(Cl)cc(Cl)c1)c1cc(S(=O)(=O)N2CCC3(CC2)OCCO3)ccc1F,IkBa stabilization activation,[1],inconclusive: 4.17% [signal inhibitor]
COc1cccc(NC(=O)Cc2csc(COc3cccc(C)c3)n2)c1,IkBa stabilization activation,[1],inconclusive: 2.61% [signal inhibitor]
CC(C)c1ccc(Cn2ccc3c4c(N)nc(NC5CC5)nc4ccc32)cc1,IkBa stabilization activation,[1],inactive
CCOc1ccccc1N1CCN(C(=O)Nc2cccc(Cl)c2)CC1,IkBa stabilization activation,[1],inconclusive: 2.08% [signal inhibitor]
O=C(Nc1ccccc1N1CCCCC1)c1cccs1,IkBa stabilization activation,[1],inactive
Cc1ccc(-c2ccc(CCC(=O)O)n2-c2cccc(C)c2C)cc1,IkBa stabilization activation,[1],inconclusive: 9.27% [signal inhibitor]
Cc1ccc(C)c(N2CCN(C(=O)CN3C(=O)COc4ccc(S(=O)(=O)N5CCC(C)CC5)cc43)CC2)c1,IkBa stabilization activation,[1],inconclusive: 0.907% [signal inhibitor]
